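Briefly, cells in 96-well plates were exposed to five compound concentrations for 48 h, and endpoints were estimated by linear interpolation. GI50 is the concentration that inhibits growth by half.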 The source made the active and inactive calls. Rule as the data show it: active = GI50 up to about 1.1 µM and inactive = higher.
Each compound was assayed on NCI-H322M (assay: NCI anticancer screen, dose series, 48 h).
In the case of `CCOC(=O)c1c(NC(=O)c2cccs2)sc2c1CCC2`, the GI50 is reported as inactive: > 100 µM. `Cc1ccc(C)c(NC(=O)NCc2ccc(Cl)cc2)c1` was tested, and the GI50 was inactive: > 100 µM. With `Cc1nc2ccccc2nc1N1CCCC1` the GI50 was inactive: > 100 µM. `CCCCNc1nc(SC)nc2[nH]cnc12` was tested, and the GI50 was inactive: > 100 µM. With `N#Cc1ccccc1Sc1ccccc1N` the GI50 was inactive: > 100 µM. `Nc1ccccc1.O=P(O)(OP(=O)(O)c1ccccc1)c1ccccc1` was tested, and the GI50 was inactive: > 100 µM. `CC(=O)/N=C1\C=C(NC(C)=O)C(=O)c2ccccc21` was tested, and the GI50 was inactive: 13.7 µM. For `Cc1ccc(N2C(=O)C3c4[nH]c5ccccc5c4C4CCC(C(C)(C)C)CC4C3C2=O)cc1` (stereo not given), the GI50 was inactive: 11.6 µM. For `C/C(=N\NC(C)(C)C)c1sc(-c2nc(C)c(/C(C)=N/NC(C)(C)C)s2)nc1C`, the GI50 was inactive: > 100 µM. For `N#CC(C#N)=c1[nH]c2cccc3c2-c2c(cccc2c3=C(C#N)C#N)[nH]1`, the GI50 was inactive: > 100 µM. In the case of `COC(=O)c1c(O)ccc2c1C1(Cc3ccccc3C1=O)C(O)O2` (stereo not given), the GI50 is reported as inactive: 49.1 µM. For `CC(=O)Nc1ccc(OC2=CCN(C)CC2)cc1`, the GI50 was inactive: > 100 µM. With `O=c1n(Cc2ccccc2)c2ccccc2n1CC1CS1` (stereo not given) the GI50 was inactive: > 100 µM. `CC(=O)OCc1ccc(O)c(C=O)c1` was tested, and the GI50 was inactive: 38.2 µM. With `N/C(=N\c1cccc(Cl)c1)c1ccccc1N` the GI50 was inactive: > 100 µM. For `O=C(CC(c1ccccc1)c1c(O)c2ccccc2oc1=O)c1ccccc1` (stereo not given), the GI50 was inactive: > 100 µM. For `CCCCCCCC1c2cc3nc(cc4[nH]c(cc5nc(cc([nH]2)[C@@]1(C)CC(=O)N(C)C)C(C)=C5CCC(=O)O)c(CCC(=O)O)c4C)C=C3C` (stereo not given in full), the GI50 was inactive: 38.8 µM. In the case of `Cc1ccc(C(=O)N/N=C(\N=N\c2ccccc2)c2ccc(N(C)C)cc2)cc1`, the GI50 is reported as inactive: > 100 µM. With `C[C@@H](CO)OCOCc1ccccc1` the GI50 was inactive: > 100 µM. In the case of `CCOC(=O)C1CN(C2CC2)CCC1=O` (stereo not given), the GI50 is reported as inactive: > 100 µM. `COC(=O)C1=NN2c3ccccc3CN([C@@H](C)c3ccccc3)C(=O)[C@@H]2[C@H]1c1ccccc1` was tested, and the GI50 was inactive: > 100 µM. In the case of `Cc1ccc(S(=O)(=O)N/N=C\c2c3ccccc3[n+]([O-])c3ccccc23)cc1`, the GI50 is reported as inactive: 7.23 µM. For `O=C(OCC1OC2OC(c3ccccc3)(n3ccc4c([N+](=O)[O-])ccnc43)OC2C1OC(=O)c1ccccc1)c1ccccc1` (stereo not given), the GI50 was inactive: > 100 µM. `Cc1cc(C)nc(NS(=O)(=O)c2ccc(NC(=O)NC(F)(F)F)cc2)n1` was tested, and the GI50 was inactive: > 100 µM. In the case of `CN1C2CCC1CC(CCOC(c1ccc(F)cc1)c1ccc(F)cc1)C2` (stereo not given), the GI50 is reported as inactive: 14.5 µM. For `COc1ccc(/N=C\c2ccc(N(CCC#N)S(=O)(=O)c3ccccc3)cc2C)cc1`, the GI50 was inactive: 52 µM. With `CCN(CC)CCOC(=O)CCN1CC2CCC(CC2)C1` the GI50 was inactive: > 100 µM. `O=C(/C(=C/c1ccccc1)c1ccccc1)N1c2ccccc2CC1c1c[nH]c2ccccc12` (stereo not given) was tested, and the GI50 was inactive: > 100 µM. In the case of `COC(=O)C(Cc1nc2ccc(Cl)cc2nc1O)C(=O)C(=O)Nc1cc(C)ccc1C` (stereo not given), the GI50 is reported as inactive: > 100 µM. `Cc1cccc2c1Sc1ccccc1C2NC(=O)CN(C)C` (stereo not given) was tested, and the GI50 was inactive: > 100 µM. For `O=c1c(Nc2ccccc2)cn(CCOc2ccc(Cl)cc2)c(=O)n1CCOc1ccc(Cl)cc1`, the GI50 was inactive: > 100 µM. With `Cc1cn(C2CC(N)C(CN)O2)c(=O)[nH]c1=O` (stereo not given) the GI50 was inactive: > 100 µM. For `CC(=O)c1cccc(NC(=O)C(=O)C(C2OC(=O)c3ccccc32)[N+](=O)[O-])c1` (stereo not given), the GI50 was inactive: > 100 µM. `Cc1cc2c(c(/C=N/c3ccc(N(C)C)cc3)c1)OC1(C=C2)Oc2ccccc2C(=O)N1C` (stereo not given) was tested, and the GI50 was inactive: 14.9 µM. `Cn1nc2ccc3nccc(NCCNCCCl)c3c2n1` was tested, and the GI50 was inactive: > 100 µM. `CSc1nc2c(ncn2C2OC(CO)C(O)C(O)C2O)c(=O)[nH]1` (stereo not given) was tested, and the GI50 was inactive: > 94.6 µM. `NS(=O)(=O)c1nnc(NS(=O)(=O)c2ccc(F)cc2)s1` was tested, and the GI50 was inactive: > 100 µM. In the case of `N#Cc1c2ccccc2cn1-c1ccc(F)cc1`, the GI50 is reported as inactive: 31.6 µM. For `CCc1ccc(/C=C/C(=O)C2CN(CC)CCC2(O)/C=C/c2ccc(CC)cc2)cc1` (stereo not given), the GI50 was inactive: 12.1 µM. In the case of `Cc1ccc(S(=O)(=O)N/N=C2\C3CC4CC(C3)C2C4)cc1` (stereo not given), the GI50 is reported as inactive: > 100 µM. For `O=c1cc(N2CCCC2)[nH]c(=O)n1Cc1ccccc1`, the GI50 was inactive: > 100 µM. For `C=CCN(c1cc(OC)c2[nH]c(C(=O)OCC)c(C)c2c1[N+](=O)[O-])S(C)(=O)=O`, the GI50 was inactive: 24 µM. In the case of `NCCCCNCCCNC(=O)c1nc(-c2nc(CCN)sc2Cl)sc1Cl`, the GI50 is reported as inactive: > 100 µM. `O=P(O)(O)C(NCC(O)CN1CCOCC1)P(=O)(O)O` (stereo not given) was tested, and the GI50 was inactive: > 100 µM. `OC(CC(O)(C(F)(F)Cl)C(F)(F)Cl)c1ccccc1` (stereo not given) was tested, and the GI50 was inactive: > 10 µM. In the case of `CC12CC(c3ccccc3O1)C(C(=O)Nc1nccs1)C(=O)N2` (stereo not given), the GI50 is reported as inactive: > 100 µM. In the case of `Clc1cc(-c2ccccc2)nc(Nc2nc3ccccc3[nH]2)n1`, the GI50 is reported as inactive: 73.8 µM. With `O=C(O)/C(Cc1ccc([N+](=O)[O-])cc1)=N\O` the GI50 was inactive: > 100 µM. For `COc1cccc(C(=O)C2C(=O)N(C)CCc3ccccc32)c1OC` (stereo not given), the GI50 was inactive: > 100 µM. For `CC(C)N(CCn1c2c3ccccc3ccc2c2oc(=O)c3ccccc3c21)C(C)C`, the GI50 was inactive: > 100 µM. `COC(=O)CCc1cc(OC)c2c(c1)C(C(=O)OC)C(c1ccc(OC)c(OC)c1)O2` (stereo not given) was tested, and the GI50 was inactive: > 100 µM. With `CN(C)C(=O)C(F)(F)C(c1ccc(F)cc1)C1C(=O)N(C)C(=O)N(C)C1=O` (stereo not given) the GI50 was inactive: > 100 µM. For `C/C(=C\CNc1nc(Cl)nc2[nH]cnc12)CO`, the GI50 was inactive: > 100 µM. `CN(c1ccccc1)c1c(Cl)c(=O)oc2c1ccc1occc12` was tested, and the GI50 was inactive: > 100 µM. For `Cc1ccc(S(=O)(=O)N2CCC3(C(/C=C/c4ccccc4)=Nc4ccccc43)C2c2ccccc2)cc1` (stereo not given), the GI50 was inactive: > 100 µM. For `NCCSc1nc2ccccc2c(=O)n1-c1ccccc1`, the GI50 was inactive: > 100 µM. In the case of `O=C1C(Br)=CC2(C=C1Br)CCNC1=C2C(=O)c2cccnc2C1=O`, the GI50 is reported as inactive: 19.4 µM. In the case of `CC(=O)OC1C[C@H]2C(OC(=O)c3ccccc3)C3C4(OC(C)=O)COC4C[C@H](OC(C)=O)[C@@]3(C)C(OC(C)=O)[C@H](OC(C)=O)C(=C1C)C2(C)C` (stereo not given in full), the GI50 is reported as inactive: > 100 µM. In the case of `COC(=O)C1[C@@H](C(=O)OC)C(=O)O[C@H]1c1cc(OC)c(OC)c(OC)c1` (stereo not given in full), the GI50 is reported as inactive: > 100 µM. For `CC(=O)Oc1ccc(/C=C/C(=O)O[C@@H](C(=O)O)[C@@H](OC(=O)/C=C/c2ccc(OC(C)=O)c(OC(C)=O)c2)C(=O)O)cc1OC(C)=O`, the GI50 was inactive: > 100 µM. For `Cc1[nH]n(-c2ccc(S(=O)(=O)O)cc2)c(=O)c1/N=N/c1ccccc1`, the GI50 was inactive: > 100 µM. For `O=[N+]([O-])c1ccc2c(c1)n1c(N3CCCC3)[n+]3ccccc3c1c1c3ccccn3c(N3CCCC3)[n+]21.[O-][Cl+3]([O-])([O-])[O-].[O-][Cl+3]([O-])([O-])[O-]`, the GI50 was inactive: > 100 µM. In the case of `COc1ccc(S(=O)(=O)N(CC(=O)O)c2ccccc2)cc1`, the GI50 is reported as inactive: > 100 µM. In the case of `O=C(O)c1cc2c(cc1S(=O)(=O)O)C1C(C3C2C2(Cl)C(Cl)=C(Cl)C3(Cl)C2(Cl)Cl)C2(Cl)C(Cl)=C(Cl)C1(Cl)C2(Cl)Cl` (stereo not given), the GI50 is reported as inactive: 23.6 µM. In the case of `O=[N+]([O-])c1ccc(Oc2c(Cl)cc(S(=O)(=O)N/C(=N\O)Nc3ccc(Cl)cc3)cc2Cl)cc1`, the GI50 is reported as inactive: 10.5 µM.

From ChEMBL document CHEMBL1201862, “PubChem BioAssay data set” (2004)
